# Data as given in the supplement of paper PMC10338343.
# ± gives the standard deviation. In all, about 3,700 sequences were measured (“pre-steady-state target cleavage rate”: median about 0.02, highest 2% from about 0.23 on). This is a selection; strong and weak results do not stand in their true shares.
# Tested on: MILI (PIWIL2) piRISC loaded with Kctd7 piRNA (26 nt)
# Experiment: pre-steady-state target cleavage rate (min^-1); MIWI and MILI are mouse PIWI proteins and EfPiwi is from a freshwater sponge; tags in brackets are library labels; higher = faster piRNA-guided slicing of the target
# Details: guide: Kctd7 piRNA 5'p-UGUUAAUCUCUCAGAGAAGGUGACAG; auxiliary factor: 500 nM mouse GTSF1
# Summary of the method: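 A burst-and-steady-state fit was used to obtain the pre-steady-state cleavage rate. The input data were sequencing reads of uncleaved targets, normalised to depth and to weakly complementary targets, from a […] transcribed, DNA-blocked target RNA library mixed with 1 nM active affinity-purified piRISC holding one synthetic guide, with or without 500 nM GTSF1 partner protein, in HEPES–potassium acetate buffer at 33 °C for 0–8 or 0–960 min. Three trials were pooled and k3 was capped at 0.0001 min^-1.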
# 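Note: 1 nM active piRISC with 0.1 nM target library at 33 °C single turnover.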
row,Sequence,pre-steady-state target cleavage rate
1,UAGUGACAGUGGUUCUCUGAGAGAGUAACA,< 0.0001
2,UAGUGACUCACCUUCUCUGAGAGAGUAACA,0.133 ± 0.029
3,UAGUGUGUCACCUACUCUGAGAGAUUAACA,0.208 ± 0.017
4,UAGUGUGUCACCUUCUCGUGAGAGAUUAACA,0.012 ± 0.0063
5,UAGUGACAGACCUUCUCUCAGAGAUUAACA,0.0249 ± 0.007
6,UAGUGACAGUCCAUCUGUGAGAGAUUAACA,0.0105 ± 0.0034
7,UAGUGACUCACCUUCUGUCAGAGAUUAACA,0.0422 ± 0.0076
8,UAGUCAGACACCUUCUCUGAGAGAUUAACA,0.183 ± 0.0079
9,UAGUCUGUCACUUCUCUGAGAGAUUAACA,0.124 ± 0.0085
10,UAGUCUGUCAGCUUCUCUGAGAGAAUAACA,0.0658 ± 0.013
11,UAGUCUGUCACCUUCUCUGAGGGAUUAACA,0.0945 ± 0.012
12,UAGUGACAGUCCUACUCUGAGAGUUUAACA,0.00579 ± 0.0019
13,UAGUGACAGACCUUCAUCUGAGAGAUUAACA,0.00437 ± 0.0038
14,UAGUGACUCAGCUUCUCUGAGAGUUUAACA,0.0246 ± 0.006
15,UAGUGAGUCACCUUCUCAGAGAGAUUAACA,0.173 ± 0.022
16,UAGUGACACACCUUCUCAGAGAGAUUUUGA,0.0098 ± 0.0042
17,UAGUGAGUCACCAUCUCUGAGAGAUUAUCA,0.113 ± 0.029
18,UAGUGAGUCACCUAGUCUGAGAGAUUAACA,0.11 ± 0.01
19,UAGUGACUCAGCCUUCUCUGAGAGAUUAACA,0.0676 ± 0.007
20,UAGUGUCUCACCUUCUCUGAGAGAUUAACA,0.224 ± 0.014
21,UAGUGAGUCACUUUCUCUGAGAGAUUAACA,0.177 ± 0.011
22,UAGUGUGUCACCUUCUGUGAGAGAAUAACA,0.0347 ± 0.0075
23,UAGUGAGUCACCUACUCUGAGUGAUUAACA,0.00445 ± 0.0041
24,UAGUGACAGUCCUUCUCUGAGAGCUUAACA,0.0198 ± 0.0034

row,Sequence,pre-steady-state target cleavage rate
1,UAGUGACAGUGGAAGUCUGAGAAAUUAACA,< 0.0001
2,UAGUGUGUCAGCUUCUCUGAGUGAUUAACA,0.00574 ± 0.003
3,UAGUGACACACCUUCUCUGAGAGUAAAACA,0.0332 ± 0.014
4,UAGUGACUCACCUUCUCUGAGAGAUUAUACA,0.114 ± 0.021
5,UAGUGACUCACCUUCUGAGAGAGAUUAACA,0.0543 ± 0.0096
6,UAGUGUGUCUCCUUCUCUGAGAGAUAAACA,0.00708 ± 0.0048
7,UAGUCUGUCACCUUCUCUGUGAGAUUAAGA,0.0263 ± 0.0088
8,UAGUGACUCACCUUCUCAGAGAGAUAUUGA,0.00678 ± 0.003
9,UAGUCUGUCACGUUCACUGAGAGAUUAACA,0.119 ± 0.008
10,UAGUGACUCACCUUCUCAGAGAGAUUAAGA,0.0422 ± 0.0072
11,UAGUGACAGUGGAACUGUGAGAGAUUUACA,< 0.0001
12,UAGUGACACACCUUCCCUGAGAGAUUAACA,0.21 ± 0.054
13,UAGUGACACACCUACUCUCAGAGAUUAACA,0.0247 ± 0.0061
14,UAGUGACAGUGGAAGAGACAGAAGAUUAACA,< 0.0001
15,UAGUGACUCACGUUCUGUGAGAGAUUAACA,0.0941 ± 0.014
16,UAGUGAGUCACCAUCUCUGAGAGAUUAUGA,0.023 ± 0.01
17,UAGUGACAGUCCUUCUCUGAGAGACUAACA,0.0185 ± 0.004
18,UAGUGACAGUGGAAGACUCACAGAUUAACA,< 0.0001
19,UAGUGAGUCACCUUCUCUGAGAGAAUUAACA,0.318 ± 0.059
20,UAGUGUGUCUCCUUCUCUGUGAGAUUAACA,0.0296 ± 0.0065
21,UAGUCUGUCACCUUCCCUGAGAGAUUAACA,0.203 ± 0.034
22,UAGUGACUCAGCUUCUCUGAGAGAAUAACA,0.00794 ± 0.003
23,UAGUCUGUCACGUACUCUGAGAGAUUAACA,0.129 ± 0.0057
24,UAGUCAGUCACCUACUCUGAGAGAUUAACA,0.198 ± 0.0093

row,Sequence,pre-steady-state target cleavage rate
1,UAGUGACAGACGUUCUCUGAGAGAUUAUCA,0.0188 ± 0.0066
2,UAGUCUGUCACCUUCUCUCUGAGAUUAACA,0.00967 ± 0.0028
3,UAGUGACUCUCCUUCUCUGACAGAUUAACA,0.0546 ± 0.0059
4,UAGUGACAGUGGUCUCUGAGAGAUUAACA,0.00469 ± 0.0014
5,UAGUCUGUCACCUUGAGUGAGAGAUUAACA,0.028 ± 0.0049
6,UAGUGACAGUGGAAGUCUGACAGUUUAACA,< 0.0001
7,UAGUGAGUCACCUUCUCAGAGAGAAUAACA,0.0207 ± 0.0083
8,UAGUGACAGUGGUUUCUGAGAGAUUAACA,0.00579 ± 0.0018
9,UAGUGACACACCUUCUCACUGAGAUUAACA,0.00782 ± 0.0033
10,UAGUGACUCACCUUCUCUGUAGAGAUUAACA,0.00534 ± 0.002
11,UAGUGACAGUGGAUCUCUGGAGAUUAACA,< 0.0001
12,UAGUGACACACCUUCUCUGAGAGAUAACA,0.0132 ± 0.0057
13,UAGUGACUCGACCUUCUCUGAGAGAUUAACA,0.0771 ± 0.0072
14,UAGUGAGUCACCUUGACUGAGAGAUUAACA,0.0389 ± 0.008
15,UAGUCUGUCUACCUUCUCUGAGAGAUUAACA,0.0395 ± 0.009
16,UAGUGAGUCAGCUUCUCUGUGAGAUUAACA,0.0478 ± 0.0051
17,UAGUGUGUCACCUUCUCGAGAGAUUAACA,0.0644 ± 0.013
18,UAGUGACUCACCUUCUCUUAGAGAUUAACA,0.0571 ± 0.0067
19,UAGUCUGUCUCCUUCUCUCAGAGAUUAACA,0.0427 ± 0.0053
20,UAGUGACAGACCUUCUCUGAGAGUUAAACA,0.0116 ± 0.0061
21,UAGUCUGUCACCUUCUCUGAGAGAUUAUGA,0.0358 ± 0.012
22,UAGUGACACACCUUCUCAGAGAGAUUAAGA,0.0281 ± 0.011
23,UAGUCUGAUCACCUUCUCUGAGAGAUUAACA,0.192 ± 0.012
24,UAGUGUGUUACCUUCUCUGAGAGAUUAACA,0.119 ± 0.017
